# Whole data set: some 33,000 sequences, median “E-score (-0.5 to 0.5)” near -0.036, cut for the highest 2% near 0.37. The list shows a part of the results.
# Molecular target: T1, Yer064c (UniProt P40041)
# T1 sequence: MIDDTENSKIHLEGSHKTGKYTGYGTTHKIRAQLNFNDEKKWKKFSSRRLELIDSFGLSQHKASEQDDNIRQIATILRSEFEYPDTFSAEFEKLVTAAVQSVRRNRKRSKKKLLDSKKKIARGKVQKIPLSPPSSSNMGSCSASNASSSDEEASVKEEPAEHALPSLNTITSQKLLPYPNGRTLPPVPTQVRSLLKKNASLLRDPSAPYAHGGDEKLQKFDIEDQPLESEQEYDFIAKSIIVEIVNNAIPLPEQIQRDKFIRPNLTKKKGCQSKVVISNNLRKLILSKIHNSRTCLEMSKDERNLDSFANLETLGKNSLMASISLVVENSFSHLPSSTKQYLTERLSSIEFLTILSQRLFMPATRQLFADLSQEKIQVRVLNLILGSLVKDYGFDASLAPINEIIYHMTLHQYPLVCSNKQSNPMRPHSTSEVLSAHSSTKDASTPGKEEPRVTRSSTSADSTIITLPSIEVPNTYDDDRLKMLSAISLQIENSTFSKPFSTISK
# Experiment: PBM E-score (8-mer binding enrichment) (E-score (-0.5 to 0.5)); higher = stronger / more preferred TF binding; most listed sequences are background and not binding sites
# Conditions: protein concentration: 200 nM; construct: GST-full length
# Outline: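 For each ungapped eight-base word taken together with its reverse complement, the Universal PBM Analysis Suite assigned an E-score. Binding data came from GST-tagged yeast transcription factors, applied at about 100-200 nM, on universal all-10-mer Agilent arrays made double-stranded by primer extension. Fluorescent anti-GST marked bound protein, and scans were normalised with masliner.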
row,Sequence,PBM E-score
1,GCGAACCA,0.00685
2,ATGAAAGG,-0.0528
3,ATACCGAT,-0.00161
4,TAAGAAGA,0.135
5,AAAGATGC,-0.267
6,TACCTTGA,0.102
7,AATTATAA,0.0893
8,CGACTCCC,0.404
9,ACCATACT,0.0817
10,GGACACCC,-0.167
11,ACGAAAGT,0.0566
12,AAATGAGT,0.427
13,GCAAGCGC,-0.214
14,AACCAATC,0.0797
15,TGGACCCA,-0.0371
16,AAGCGAGC,-0.1
17,CATGACAG,0.0747
18,ATACATAG,0.187
19,CTACGCGA,0.0298
20,ATAAAACC,0.0678
21,AACTTCAA,0.0587
22,GTGAAATA,-0.0351
23,ATAAGAGA,0.135
24,CAGCTTAA,-0.00624
25,GAACCTGA,-0.102

row,Sequence,PBM E-score
1,ACACGACT,0.408
2,ACCTTCGA,0.00431
3,GGACAACA,0.0223
4,CATCGCAA,-0.00588
5,AGATACAT,0.132
6,TCACGGGA,0.17
7,TGCGCCCA,-0.265
8,TGACAAAA,-0.0309
9,GGAAAGTA,-0.0868
10,AACTGTGA,0.129
11,CCCGTCAG,-0.259
12,ACCCCTCA,-0.217
13,CTACCCCA,-0.17
14,ACCGCTCT,-0.114
15,AGCAGCGG,-0.145
16,CTGATCTA,0.0991
17,GTGCTGTA,-0.00179
18,CGCTTGTC,-0.24
19,GAGACCGC,-0.296
20,CATGAATC,0.423
21,CCAGCATC,-0.209
22,AATCGTAA,0.115
23,TACCCGGA,-0.095
24,CCGAGTCA,0.467
25,GATAAAAC,0.1

row,Sequence,PBM E-score
1,AGTCAGCC,0.458
2,CCAATGGC,-0.156
3,CACCAAAA,0.0598
4,AGGAGTGG,-0.274
5,CACTAGGC,-0.0241
6,ATCGGTAG,-0.0111
7,ACCAGGGC,-0.183
8,CAATCATA,0.371
9,TAAGGGCA,-0.0703
10,TCTGGTCA,0.0409
11,ACTACGGA,0.0965
12,AACACTGC,-0.111
13,ATTCAAGC,0.243
14,ATAAAGAA,0.0719
15,ACTATTAG,0.205
16,CATGTAAA,-0.0585
17,AAAAGGTA,0.00329
18,ACTCCGAA,0.117
19,AATACCAT,0.165
20,GGAAGACA,0.039
21,TAGTCATA,0.489
22,CAAATGAA,0.111
23,TCCCCCCA,-0.265
24,CCCGCAGA,-0.167
25,GCGGTTTA,-0.0334

row,Sequence,PBM E-score
1,ATGCGATA,-0.0494
2,ATGCGAGG,-0.0534
3,AATCCTAG,0.0565
4,GCCTTGAA,-0.123
5,TCTACACA,0.0654
6,AAAACCCC,-0.275
7,ATAGTTTG,-0.0035
8,AAGTTCCA,-0.2
9,CAAGGGCC,-0.122
10,AGCCACGC,0.031
11,AAATTGCC,-0.0755
12,TAAAGTTA,0.106
13,GAGGCTCC,-0.268
14,CCGCGACC,-0.121
15,CCCGGTCG,-0.316
16,ATGGCTCC,0.256
17,AAACGTTC,-0.234
18,CAGCAACG,0.0955
19,GGACGACC,-0.23
20,AGCTAGAA,-0.0011
21,AGCTGAGA,0.166
22,AGTGCACG,-0.084
23,CGATTGCC,-0.137
24,CGCCGCAA,-0.235
25,CGCTCCTA,-0.0744

row,Sequence,PBM E-score
1,ACTTGACT,0.412
2,AGGTTTTA,-0.113
3,CAATATGC,-0.0206
4,ATCGCGTC,-0.108
5,AGCAAAAG,-0.271
6,CCTAGAAA,-0.0302
7,CTCGATAC,0.0266
8,AAGTGTAT,-0.024
9,CCTATCAA,-0.14
10,CAGCGGCG,0.18
11,CGCAGGAA,-0.0939
12,TACTTAAA,0.104
13,TGTAAAAA,-0.12
14,AACGCTGA,0.12
15,CAGGATGA,0.15
16,ATGCGTTC,0.0922
17,AACTAGCT,-0.0448
18,GAACGGCC,-0.296
19,ATCGGAGA,-0.0563
20,AGTGCTAG,-0.224
21,ACGCTTGC,-0.208
22,AAAGACGC,-0.166
23,AAACAGGG,-0.082
24,ACCCCGAA,-0.0895
25,AAGTCCTA,0.186

row,Sequence,PBM E-score
1,ACTACCCC,0.0724
2,GTGAACAA,-0.178
3,AATCTGTC,0.0226
4,ACGATACA,-0.0548
5,TATCTCCA,-0.00425
6,CTATACAC,-0.135
7,CCTGCCAA,-0.152
8,AGAGGACG,-0.139
9,CTACTTGC,0.155
10,GGGTGGGA,-0.139
11,CTGGATCC,-0.105
12,AGAAGGCG,-0.32
13,GAACTCTC,-0.0307
14,AATACGGT,-0.0939
15,GATCCTTA,-0.124
16,ACACGCAT,-0.121
17,CACCAAAC,-0.024
18,ATGCGCTG,-0.0746
19,ATTACTTG,0.19
20,CCCCCCAA,-0.315
21,GAGGAACA,0.0367
22,CCCGTGGA,0.0223
23,GCGCCTAC,-0.0635
24,CTGTGACC,-0.0881
25,CCGCCGTA,-0.145

row,Sequence,PBM E-score
1,AACCAGGA,0.0408
2,GTGACCAC,-0.0465
3,CCTAGACC,-0.16
4,CTACCATA,0.0732
5,TAGCAAAA,-0.192
6,CGTGTAAA,-0.0317
7,AAAAGCTC,-0.0149
8,CGCCACGC,-0.0595
9,CCTTGGTC,-0.0352
10,CTATAGAG,-0.174
11,AACTCTAT,-0.243
12,AAATTCGT,-0.06
13,CTAGTCTA,0.205
14,TCCCTGAA,0.0531
15,AATCTTTA,0.18
16,ACTACTAA,0.25
17,CCCGGTAA,-0.25
18,ACCAGTTG,0.0622
19,CAGACAAC,-0.122
20,ATGTAACC,-0.0155
21,CCTACTGA,0.0921
22,CTCTTTCC,0.0304

# Source: the supplement of paper PMC3334620
